These results are taken from the supplement of paper PMC12889115.

The other results are listed elsewhere or left out. Many values rest on one well or one pass, so single values are uncertain.
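Note: polymyxin B level opens the outer membrane while sparing the inner membrane, with novobiocin wells as reference growth inhibitor.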

The test concerns Salmonella enterica serovar Typhimurium SL1344. As to the kind of experiment: bacterial growth OD600 after 18 h in MHB with 0.5 µg/mL polymyxin B; higher = more bacterial growth (less inhibition). To be noted: 25 µM; polymyxin B 0.5 µg/mL; system: broth. As to the method: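 Secondary screen of the 553 primary hits at 25 µM. (i) S. Typhimurium SL1344 grown in Mueller-Hinton broth with 0.5 µg/mL polymyxin B, OD600 read after 18 h. (ii) SAFIRE assay: RAW 264.7 macrophages infected with S. Typhimurium sifB::gfp (MOI 30); compound added 2 h post-infection; cells fixed at 18 h; GFP-positive pixel fraction per macrophage imaged by confocal microscopy and expressed as % of DMSO control.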
Turning to `CCOC(=O)C1(Cc2ccccc2Cl)CCN(Cc2nccn2CC)CC1`, the “bacterial growth OD600” value is 0.005.

Consider `O=C(Nc1cnn(-c2ccc(C(=O)N3CCN(c4ccccc4Cl)CC3)cc2)c1)C1CCOCC1`, for which the “bacterial growth OD600” value amounted to 0.244.

As for `CCn1ccnc1CN1CCCC1C(=O)Nc1ccc(-c2cccc(F)c2)cc1` (configuration not stated), the “bacterial growth OD600” value was found to be 0.001.

With `COC(c1ccc2c(c1)CN(C(=O)c1cccc(C#CC(C)(C)O)c1)CCO2)C1CCCCC1` (configuration not stated), the “bacterial growth OD600” value turned out to be 0.

On to `O=C(c1ccc(Cn2cnnn2)cc1)N1CCCC(CCc2ccccc2)C1` (configuration not stated), for which the “bacterial growth OD600” value stood at 0.006.

Consider `COc1cccc(CN2CCc3nnc(C(CC(C)C)NC(=O)c4cc(C)cc(C)c4)n3CC2)c1O` (configuration not stated), for which the “bacterial growth OD600” value amounted to 0.331.

Turning to `COc1cc(Cl)c(CN2CCOc3ccc(CN4C[C@@H](C)O[C@@H](C)C4)cc3C2)cc1OC`, the “bacterial growth OD600” value came to 0.594.
